# Test results from the supplement of paper PMC8728848.
# The list shows a part of the results.
# Columns and labels:
# Assay in all cases: glycan array binding signal (z-score within array); higher = stronger binding
# Conditions in all cases: glycan notation: IUPAC condensed, linker removed
# [1] = biological target: Fuc(a1-3)[GalNAc(b1-4)]GlcNAc
# Procedure, shortened: (§1)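 Glycan array data were curated from 3228 arrays in the Consortium for Functional Glycomics database and kept only where the protein sequence was available. Glycan names were converted to IUPAC-condensed notation, and columns mapping to the same glycan were averaged. The binding signal is a within-array Z-score, averaged across arrays of the same protein sequence at different concentrations or buffers and across linkers. Negative Z-scores can be read as non-binding.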
# [2] = biological target: Fuc(a1-4)GlcNAc
# Procedure, shortened: as §1
# [3] = biological target: Fuc(b1-3)GlcNAc
# Procedure, shortened: as §1
# [4] = biological target: Gal(a1-2)Gal
# Procedure, shortened: as §1
# [5] = biological target: Gal(a1-3)Gal
# Procedure, shortened: as §1
# [6] = biological target: Gal(a1-3)Gal(b1-3)GlcNAc
# Procedure, shortened: as §1
# [7] = biological target: Gal(a1-3)Gal(b1-4)Glc
# Procedure, shortened: as §1
# [8] = biological target: Gal(a1-3)Gal(b1-4)GlcNAc
# Procedure, shortened: as §1
# [9] = biological target: Gal(a1-3)Gal(b1-4)[Fuc(a1-3)]GlcNAc
# Procedure, shortened: as §1
# [10] = biological target: Gal(a1-3)GalNAc
# Procedure, shortened: as §1
# [11] = biological target: Gal(a1-3)[Gal(a1-4)]Gal(b1-4)GlcNAc
# Procedure, shortened: as §1
# [12] = biological target: Gal(a1-4)Gal(b1-4)Glc
# Procedure, shortened: as §1
# [13] = biological target: Gal(a1-4)Gal(b1-4)GlcNAc
# Procedure, shortened: as §1
# [14] = biological target: Gal(a1-4)GlcNAc
# Procedure, shortened: as §1
# [15] = biological target: Gal(a1-6)Glc
# Procedure, shortened: as §1
# [16] = biological target: Gal(b1-2)Gal
# Procedure, shortened: as §1
# [17] = biological target: Gal(b1-3)Gal
# Procedure, shortened: as §1
# [18] = biological target: Gal(b1-3)Gal(b1-4)GlcNAc
# Procedure, shortened: as §1
# [19] = biological target: Gal(b1-3)GalNAc
# Procedure, shortened: as §1
# [20] = biological target: Gal(b1-3)GalNAc(b1-3)Gal(a1-4)Gal(b1-4)Glc
# Procedure, shortened: as §1
# [21] = biological target: Gal(b1-3)GalNAc(b1-4)Gal(b1-4)Glc
# Procedure, shortened: as §1
# [22] = biological target: Gal(b1-3)GalNAc(b1-4)[Neu5Ac(a2-3)]Gal(b1-4)Glc
# Procedure, shortened: as §1
# [23] = biological target: Gal(b1-3)GlcNAc
# Procedure, shortened: as §1
# [24] = biological target: Gal(b1-3)GlcNAc(b1-2)Man(a1-3)[Gal(b1-3)GlcNAc(b1-2)Man(a1-6)]Man(b1-4)GlcNAc(b1-4)GlcNAc
# Procedure, shortened: as §1
# [25] = biological target: Gal(b1-3)GlcNAc(b1-3)Gal(b1-3)GlcNAc
# Procedure, shortened: as §1
# [26] = biological target: Gal(b1-3)GlcNAc(b1-3)Gal(b1-4)Glc
# Procedure, shortened: as §1
# [27] = biological target: Gal(b1-3)GlcNAc(b1-3)Gal(b1-4)GlcNAc
# Procedure, shortened: as §1
# [28] = biological target: Gal(b1-3)[Fuc(a1-4)]GlcNAc
# Procedure, shortened: as §1
# [29] = biological target: Gal(b1-3)[Fuc(a1-4)]GlcNAc(b1-3)Gal(b1-3)[Fuc(a1-4)]GlcNAc
# Procedure, shortened: as §1
# [30] = biological target: Gal(b1-3)[Fuc(a1-4)]GlcNAc(b1-3)Gal(b1-4)GlcNAc
# Procedure, shortened: as §1
# [31] = biological target: Gal(b1-3)[Fuc(a1-4)]GlcNAc(b1-3)Gal(b1-4)[Fuc(a1-3)]GlcNAc
# Procedure, shortened: as §1
# [32] = biological target: Gal(b1-3)[GlcNAc(b1-6)]GalNAc
# Procedure, shortened: as §1
# [33] = biological target: Gal(b1-3)[Neu5Ac(a2-6)]GalNAc
# Procedure, shortened: as §1
# [34] = biological target: Gal(b1-3)[Neu5Ac(a2-6)]GlcNAc(b1-6)Gal(b1-4)Glc
# Procedure, shortened: as §1
# [35] = biological target: Gal(b1-3)[Neu5Ac(b2-6)]GalNAc
# Procedure, shortened: as §1
# [36] = biological target: Gal(b1-4)GalNAc(a1-3)[Fuc(a1-2)]Gal(b1-4)GlcNAc
# Procedure, shortened: as §1
# [37] = biological target: Gal(b1-4)GalNAc(b1-3)[Fuc(a1-2)]Gal(b1-4)GlcNAc
# Procedure, shortened: as §1
# [38] = biological target: Gal(b1-4)Glc
# Procedure, shortened: as §1
# [39] = biological target: Gal(b1-4)Glc6S
# Procedure, shortened: as §1
# [40] = biological target: Gal(b1-4)GlcNAc
# Procedure, shortened: as §1
# [41] = biological target: Gal(b1-4)GlcNAc(a1-6)Gal(b1-4)GlcNAc
# Procedure, shortened: as §1
# [42] = biological target: Gal(b1-4)GlcNAc(b1-2)Man(a1-3)[Gal(b1-4)GlcNAc(b1-2)Man(a1-6)]Man(b1-4)GlcNAc(b1-4)GlcNAc
# Procedure, shortened: as §1
# [43] = biological target: Gal(b1-4)GlcNAc(b1-3)Gal(b1-3)GlcNAc
# Procedure, shortened: as §1
# [44] = biological target: Gal(b1-4)GlcNAc(b1-3)Gal(b1-4)Glc
# Procedure, shortened: as §1
# [45] = biological target: Gal(b1-4)GlcNAc(b1-3)Gal(b1-4)GlcNAc
# Procedure, shortened: as §1
binder,measurement,setting,value
TbCVNHOb (Tuber borchii) (protein) MSFYASSEDVRTIEEGGRTWLVGRARRADGSWQDIKLDLDNIIGNRDGHLTWGEQNFTQSASDIRFNFEGGSNVPVLRAKLRNAAGGEQESDLNLGERLTNNNGDLVFN,glycan array binding signal (z-score),[1],-0.267
same,glycan array binding signal (z-score),[2],-0.278
same,glycan array binding signal (z-score),[3],-0.129
same,glycan array binding signal (z-score),[4],-0.036
same,glycan array binding signal (z-score),[5],0.126
same,glycan array binding signal (z-score),[6],-0.047
same,glycan array binding signal (z-score),[7],0.765
same,glycan array binding signal (z-score),[8],-0.054
same,glycan array binding signal (z-score),[9],-0.039
same,glycan array binding signal (z-score),[10],-0.127
same,glycan array binding signal (z-score),[11],-0.074
same,glycan array binding signal (z-score),[12],0.23
same,glycan array binding signal (z-score),[13],-0.047
same,glycan array binding signal (z-score),[14],0.154
same,glycan array binding signal (z-score),[15],-0.31
same,glycan array binding signal (z-score),[16],-0.093
same,glycan array binding signal (z-score),[17],-0.078
same,glycan array binding signal (z-score),[18],-0.136
same,glycan array binding signal (z-score),[19],-0.117
same,glycan array binding signal (z-score),[20],-0.287
same,glycan array binding signal (z-score),[21],-0.23
same,glycan array binding signal (z-score),[22],-0.245
same,glycan array binding signal (z-score),[23],-0.016
same,glycan array binding signal (z-score),[24],-0.148
same,glycan array binding signal (z-score),[25],-0.152
same,glycan array binding signal (z-score),[26],5.86
same,glycan array binding signal (z-score),[27],-0.19
same,glycan array binding signal (z-score),[28],-0.119
same,glycan array binding signal (z-score),[29],-0.04
same,glycan array binding signal (z-score),[30],-0.225
same,glycan array binding signal (z-score),[31],-0.198
same,glycan array binding signal (z-score),[32],-0.231
same,glycan array binding signal (z-score),[33],-0.29
same,glycan array binding signal (z-score),[34],1.4
same,glycan array binding signal (z-score),[35],0.035
same,glycan array binding signal (z-score),[36],-0.159
same,glycan array binding signal (z-score),[37],-0.093
same,glycan array binding signal (z-score),[38],-0.296
same,glycan array binding signal (z-score),[39],-0.217
same,glycan array binding signal (z-score),[40],-0.072
same,glycan array binding signal (z-score),[41],-0.098
same,glycan array binding signal (z-score),[42],-0.139
same,glycan array binding signal (z-score),[43],-0.167
same,glycan array binding signal (z-score),[44],2.32
same,glycan array binding signal (z-score),[45],-0.064
